PMC9911399, “Two distinct binding modes provide the RNA-binding protein RbFox with extraordinary sequence specificity”
Substitutions are numbered along the chain they refer to; changes in the protein carry UniProt numbers. The list shows a part of the results.

B1: CGUUAGG (DNA:RNA)
RNA: GGGAGACCGGAAUUCAGAUUGUCCCGUUAGGUUAAAUCCCGUCGUAGCCACCA
DNA 1: CAATCTGAATTCCGGTCTCCC
DNA 2: TGGTGGCTACGACGGGATT
B2: GUCAGCA (DNA:RNA)
RNA: GGGAGACCGGAAUUCAGAUUGUCCGUCAGCAUUAAAUCCCGUCGUAGCCACCA
DNA 1: CAATCTGAATTCCGGTCTCCC
DNA 2: TGGTGGCTACGACGGGATT
B3: UGGUUCC (DNA:RNA)
RNA: B1 RNA with C25U, U27G, A29U, G30C, G31C
DNA 1: CAATCTGAATTCCGGTCTCCC
DNA 2: TGGTGGCTACGACGGGATT
B4: GGGGGUG (DNA:RNA)
RNA: B1 RNA with C25G, U27G, U28G, A29G, G30U
DNA 1: CAATCTGAATTCCGGTCTCCC
DNA 2: TGGTGGCTACGACGGGATT
B5: AGAGAAG (DNA:RNA)
RNA: B1 RNA with C25A, U27A, U28G, G30A
DNA 1: CAATCTGAATTCCGGTCTCCC
DNA 2: TGGTGGCTACGACGGGATT
B6: UUAUUUG (DNA:RNA)
RNA: B1 RNA with C25U, G26U, U27A, A29U, G30U
DNA 1: CAATCTGAATTCCGGTCTCCC
DNA 2: TGGTGGCTACGACGGGATT
B7: GCGGCAU (DNA:RNA)
RNA: B2 RNA with U26C, C27G, A28G, G29C, C30A, A31U
DNA 1: CAATCTGAATTCCGGTCTCCC
DNA 2: TGGTGGCTACGACGGGATT
B8: GAUUCGC (DNA:RNA)
RNA: B1 RNA with C25G, G26A, A29C, G31C
DNA 1: CAATCTGAATTCCGGTCTCCC
DNA 2: TGGTGGCTACGACGGGATT
B9: AUCCGUU (DNA:RNA)
RNA: B2 RNA with G25A, A28C, C30U, A31U
DNA 1: CAATCTGAATTCCGGTCTCCC
DNA 2: TGGTGGCTACGACGGGATT
B10: UGCCCUC (DNA:RNA)
RNA: B1 RNA with C25U, U27C, U28C, A29C, G30U, G31C
DNA 1: CAATCTGAATTCCGGTCTCCC
DNA 2: TGGTGGCTACGACGGGATT
B11: CCAGCCG (DNA:RNA)
RNA: B1 RNA with G26C, U27A, U28G, A29C, G30C
DNA 1: CAATCTGAATTCCGGTCTCCC
DNA 2: TGGTGGCTACGACGGGATT
B12: CCGACGA (DNA:RNA)
RNA: B1 RNA with G26C, U27G, U28A, A29C, G31A
DNA 1: CAATCTGAATTCCGGTCTCCC
DNA 2: TGGTGGCTACGACGGGATT
B13: AGGCGCA (DNA:RNA)
RNA: B2 RNA with G25A, U26G, C27G, A28C
DNA 1: CAATCTGAATTCCGGTCTCCC
DNA 2: TGGTGGCTACGACGGGATT
B14: UUCAGGU (DNA:RNA)
RNA: B2 RNA with G25U, C30G, A31U
DNA 1: CAATCTGAATTCCGGTCTCCC
DNA 2: TGGTGGCTACGACGGGATT
B15: CUUCCAA (DNA:RNA)
RNA: B1 RNA with G26U, U28C, A29C, G30A, G31A
DNA 1: CAATCTGAATTCCGGTCTCCC
DNA 2: TGGTGGCTACGACGGGATT
B16: CAAGACA (DNA:RNA)
RNA: B1 RNA with G26A, U27A, U28G, G30C, G31A
DNA 1: CAATCTGAATTCCGGTCTCCC
DNA 2: TGGTGGCTACGACGGGATT
B17: CUGCCGU (DNA:RNA)
RNA: B1 RNA with G26U, U27G, U28C, A29C, G31U
DNA 1: CAATCTGAATTCCGGTCTCCC
DNA 2: TGGTGGCTACGACGGGATT
B18: AAGUCCG (DNA:RNA)
RNA: B1 RNA with C25A, G26A, U27G, A29C, G30C
DNA 1: CAATCTGAATTCCGGTCTCCC
DNA 2: TGGTGGCTACGACGGGATT
B19: UCGUACC (DNA:RNA)
RNA: B1 RNA with C25U, G26C, U27G, G30C, G31C
DNA 1: CAATCTGAATTCCGGTCTCCC
DNA 2: TGGTGGCTACGACGGGATT
B20: UCCUUAA (DNA:RNA)
RNA: B2 RNA with G25U, U26C, A28U, G29U, C30A
DNA 1: CAATCTGAATTCCGGTCTCCC
DNA 2: TGGTGGCTACGACGGGATT
B21: GAGGACG (DNA:RNA)
RNA: B1 RNA with C25G, G26A, U27G, U28G, G30C
DNA 1: CAATCTGAATTCCGGTCTCCC
DNA 2: TGGTGGCTACGACGGGATT
B22: CAGGGAG (DNA:RNA)
RNA: B1 RNA with G26A, U27G, U28G, A29G, G30A
DNA 1: CAATCTGAATTCCGGTCTCCC
DNA 2: TGGTGGCTACGACGGGATT
B23: GCGUAAG (DNA:RNA)
RNA: B1 RNA with C25G, G26C, U27G, G30A
DNA 1: CAATCTGAATTCCGGTCTCCC
DNA 2: TGGTGGCTACGACGGGATT
B24: AUAUGCG (DNA:RNA)
RNA: B2 RNA with G25A, C27A, A28U, A31G
DNA 1: CAATCTGAATTCCGGTCTCCC
DNA 2: TGGTGGCTACGACGGGATT
B25: GCUAAUU (DNA:RNA)
RNA: B1 RNA with C25G, G26C, U28A, G30U, G31U
DNA 1: CAATCTGAATTCCGGTCTCCC
DNA 2: TGGTGGCTACGACGGGATT
B26: UUGAUUA (DNA:RNA)
RNA: B2 RNA with G25U, C27G, G29U, C30U
DNA 1: CAATCTGAATTCCGGTCTCCC
DNA 2: TGGTGGCTACGACGGGATT
B27: ACUAUGU (DNA:RNA)
RNA: B1 RNA with C25A, G26C, U28A, A29U, G31U
DNA 1: CAATCTGAATTCCGGTCTCCC
DNA 2: TGGTGGCTACGACGGGATT
B28: UCCGGGA (DNA:RNA)
RNA: B2 RNA with G25U, U26C, A28G, C30G
DNA 1: CAATCTGAATTCCGGTCTCCC
DNA 2: TGGTGGCTACGACGGGATT
B29: CGAGCUU (DNA:RNA)
RNA: B1 RNA with U27A, U28G, A29C, G30U, G31U
DNA 1: CAATCTGAATTCCGGTCTCCC
DNA 2: TGGTGGCTACGACGGGATT
B30: AACUUGG (DNA:RNA)
RNA: B1 RNA with C25A, G26A, U27C, A29U
DNA 1: CAATCTGAATTCCGGTCTCCC
DNA 2: TGGTGGCTACGACGGGATT
B31: GGUGCGG (DNA:RNA)
RNA: B1 RNA with C25G, U28G, A29C
DNA 1: CAATCTGAATTCCGGTCTCCC
DNA 2: TGGTGGCTACGACGGGATT

These binders were tested against T1, RBFOX1 RRM RbFoxmut (Fox-RRM*) (Homo sapiens, UniProt Q9NWB1 109-208, R118D;E147R;N151S;E152T) (assay: EMSA; HiTS-Eq, 1 nM pool, 10 min; buffer printed only for the single-RNA assays: 10 mM Tris pH 7.5, 150 mM NaCl, 3.4 mM EDTA, 0.001% NP-40, 30 C). Details: tags: His6 N-terminal (pET28a); label: 5' 32P.
T1 sequence: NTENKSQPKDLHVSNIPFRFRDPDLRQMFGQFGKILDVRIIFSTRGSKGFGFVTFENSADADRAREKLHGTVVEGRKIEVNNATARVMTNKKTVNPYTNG
Summary of the method: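 Purified RbFox RRM (wild type or mutant) was equilibrated for 10 min in 50 µL with 1 nM of a 5′-radiolabelled pool of RNA with 7 randomized nucleotides, its flanks annealed to DNA oligonucleotides, across increasing protein concentrations. Free RNA was separated by 8% native PAGE, excised, reverse-transcribed, PCR-barcoded and sequenced on an Illumina HiSeq 2500. Relative association constants came from read-count changes of each variant against the control reaction, normalised to the cognate motif.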

Row | Binder | binding signal
1 | B1 | 0.0993 KA relative to UGCAUGU
2 | B2 | 0.122 KA relative to UGCAUGU
3 | B3 | 0.157 KA relative to UGCAUGU
4 | B4 | 0.289 KA relative to UGCAUGU
5 | B5 | 0.13 KA relative to UGCAUGU
6 | B6 | 0.0915 KA relative to UGCAUGU
7 | B7 | 0.124 KA relative to UGCAUGU
8 | B8 | 0.132 KA relative to UGCAUGU
9 | B9 | 0.119 KA relative to UGCAUGU
10 | B10 | 0.0571 KA relative to UGCAUGU
11 | B11 | 0.0831 KA relative to UGCAUGU
12 | B12 | 0.0623 KA relative to UGCAUGU
13 | B13 | 0.124 KA relative to UGCAUGU
14 | B14 | 0.105 KA relative to UGCAUGU
15 | B15 | 0.0785 KA relative to UGCAUGU
16 | B16 | 0.0634 KA relative to UGCAUGU

Row | Binder | binding signal
17 | B17 | 0.0884 KA relative to UGCAUGU
18 | B18 | 0.0832 KA relative to UGCAUGU
19 | B19 | 0.0903 KA relative to UGCAUGU
20 | B20 | 0.0966 KA relative to UGCAUGU
21 | B21 | 0.0679 KA relative to UGCAUGU
22 | B22 | 0.128 KA relative to UGCAUGU
23 | B23 | 0.106 KA relative to UGCAUGU
24 | B24 | 0.148 KA relative to UGCAUGU
25 | B25 | 0.0831 KA relative to UGCAUGU
26 | B26 | 0.128 KA relative to UGCAUGU
27 | B27 | 0.152 KA relative to UGCAUGU
28 | B28 | 0.0524 KA relative to UGCAUGU
29 | B29 | 0.107 KA relative to UGCAUGU
30 | B30 | 0.0716 KA relative to UGCAUGU
31 | B31 | 0.0972 KA relative to UGCAUGU
